# Experimental data from PubChem BioAssay (NCATS).
# Values joined by “and” are separate entries in the source; they are usually repeats but may differ in a detail not shown here. Identical values can stand only once. The shares of active, inactive and inconclusive entries below differ from those in the screen. Potencies of inconclusive entries are doubtful fits and often do not repeat. Active and inactive are the calls of the source. The call rests on the fitted dose curve; in most records, active means well fitted curve in the direction sought with a large enough effect; inconclusive means small, poorly fitted or top-dose-only effect, or another doubt; inactive means no such curve, though single readings can be large; an effect the other way counts as inactive or inconclusive.
# Key:
# [1] = qHTS of pediatric cancer cell lines to identify multiple opportunities for drug repurposing: Primary screen for TC32 cells (AID 1347089); further: nearly all actives have a fitted effect of over 60% in size
# In short: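 Measured quantity: luminescence from CellTiter-Glo, reflecting metabolically active TC32 cells following 48 h of compound. Curves came straight from multi-point titrations, with 8 or 11 points in primary and 11 in confirmatory screening.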
# [2] = qHTS of pediatric cancer cell lines to identify multiple opportunities for drug repurposing: Primary screen for DAOY cells (AID 1347090); further: nearly all actives have a fitted effect of over 55% in size
# In short: (§1)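 Viability measured as metabolically active cells via CellTiter-Glo luminescence following 48 hours of compound exposure, 11-point dilutions in confirmatory testing. 500-1,000 cells/well plated 5 hours before dosing; controls were DMSO and 2.3 µM bortezomib.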
# [3] = qHTS of pediatric cancer cell lines to identify multiple opportunities for drug repurposing: Primary screen for SJ-GBM2 cells (AID 1347091)
# In short: as §1
# [4] = qHTS of pediatric cancer cell lines to identify multiple opportunities for drug repurposing: Primary screen for A673 cells (AID 1347092); conditions: A673 Ewing sarcoma viability, CellTiter-Glo ATP luminescence, 48 h; activity change, negative = cytotoxic: at 46 µM (top of the series); further: nearly all actives have a fitted effect of over 45% in size
# In short: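 Cells are plated, rested 5 h, dosed by pintool, incubated 48 h, then lysed with CellTiter-Glo and read by luminescence. DMSO is the neutral control; bortezomib at 2.3 uM final is the positive control.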
# [5] = qHTS of pediatric cancer cell lines to identify multiple opportunities for drug repurposing: Primary screen for BT-37 cells (AID 1347094)
# In short: (§2)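 ATP-based luminescence (CellTiter-Glo) quantifies viability after a 48-hour exposure. Compounds are dosed across 8 or 11 final concentrations; DMSO and 2.3 µM bortezomib serve as controls.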
# [6] = qHTS of pediatric cancer cell lines to identify multiple opportunities for drug repurposing: Primary screen for SK-N-MC cells (AID 1347093); conditions: SK-N-MC viability, CellTiter-Glo luminescence, 48 h; activity change, negative = cytotoxic: at 46 µM (top of the series)
# In short: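 Metabolically active cells were quantified by ATP-dependent luminescence (CellTiter-Glo, 15 min at room temperature) following 48 h treatment. Cells had been plated at 500-1,000 per well and settled for 5 h beforehand.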
# [7] = qHTS of pediatric cancer cell lines to identify multiple opportunities for drug repurposing: Primary screen for U-2 OS cells (AID 1347096); further: nearly all actives have a fitted effect of over 50% in size
# In short: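 Viability after 48 h compound treatment at 37C, 500-1,000 cells/well, read as ATP luminescence with CellTiter-Glo. Primary screens used 11-point (MIPE, 0.78 nM-46 µM) or 8-point (NPC, 0.59 nM-46 µM) final concentrations; follow-up screens used 11-point dilutions.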
# [8] = qHTS of pediatric cancer cell lines to identify multiple opportunities for drug repurposing: Primary screen for NB-EBc1 cells (AID 1347095)
# In short: as §2
# [9] = molecular target: Tyrosine-protein phosphatase non-receptor type substrate 1 (Homo sapiens) + Leukocyte surface antigen CD47 (Homo sapiens) (UniProt P78324+Q08722); assay: CD47-SIRPalpha protein protein interaction - Alpha assay qHTS validation (AID 1347059);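 further: bead proximity luminescence from CD47 binding SIRPalpha after compound preincubation with SIRPalpha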
# In short: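 Biotinylated Avi-tagged SIRPalpha (25 nM) preincubated 30 min with compound, then His-tagged CD47 (12.5 nM) added 30 min; AlphaScreen with Ni-NTA acceptor and streptavidin donor beads. PBS pH 7.4, 0.05% IGEPAL, room temperature; 7-point titrations.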
# Potency means the concentration at half of the fitted maximal effect; tags describe the fitted curve by direction and shape.
# Sequence of UniProt P78324 (P78324 whole entry, looked up): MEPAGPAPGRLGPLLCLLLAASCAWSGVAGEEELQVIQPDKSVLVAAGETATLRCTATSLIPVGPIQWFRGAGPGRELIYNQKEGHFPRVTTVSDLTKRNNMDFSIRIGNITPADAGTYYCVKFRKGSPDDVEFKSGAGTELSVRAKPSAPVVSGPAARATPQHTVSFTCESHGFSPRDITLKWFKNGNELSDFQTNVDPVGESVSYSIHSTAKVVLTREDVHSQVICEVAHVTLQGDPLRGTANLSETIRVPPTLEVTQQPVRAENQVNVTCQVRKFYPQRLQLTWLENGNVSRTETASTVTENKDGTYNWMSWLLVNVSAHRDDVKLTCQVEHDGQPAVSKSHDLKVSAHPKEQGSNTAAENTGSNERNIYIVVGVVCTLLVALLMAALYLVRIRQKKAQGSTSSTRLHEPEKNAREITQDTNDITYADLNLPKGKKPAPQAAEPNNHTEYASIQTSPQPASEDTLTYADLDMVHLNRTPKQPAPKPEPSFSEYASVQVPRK
# Sequence of UniProt P78324 (Q08722 whole entry, looked up): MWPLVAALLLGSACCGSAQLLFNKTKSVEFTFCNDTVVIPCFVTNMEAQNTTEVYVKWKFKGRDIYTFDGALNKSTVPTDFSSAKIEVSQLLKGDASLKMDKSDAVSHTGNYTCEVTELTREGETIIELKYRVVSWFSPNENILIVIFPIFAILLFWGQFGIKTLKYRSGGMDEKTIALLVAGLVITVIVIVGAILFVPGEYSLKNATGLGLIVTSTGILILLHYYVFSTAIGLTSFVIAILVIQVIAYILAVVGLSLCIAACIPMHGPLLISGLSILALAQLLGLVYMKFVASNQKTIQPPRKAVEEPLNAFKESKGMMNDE
Compound,Potency [1],Potency [2],Potency [3],Potency [4],Potency [5],Potency [6],Potency [7],Potency [8],Potency [9]
COc1cccc2c1C(=O)c1c(O)c3c(c(O)c1C2=O)C[C@@](O)(C(C)=O)C[C@@H]3O[C@H]1C[C@H](N)[C@H](O)[C@H](C)O1,active: 0.236 µM,active: 1.06 µM,"inconclusive: 0.376 µM [cytotoxic, full curve, poor fit]",active: 0.266 µM,active: 0.11 µM,–,–,–,–
CCC(C=C[C@@H]1OC(=O)C=C[C@H]1C)=C[C@H](C)CC=CC(C)=C[C@@H](C)C(=O)[C@@H](C)[C@H](O)[C@@H](C)CC(C)=CC(=O)O,active: 0.0777 µM,active: 0.0782 µM,"inconclusive: 0.196 µM [cytotoxic, partial curve]",active: 0.0247 µM,–,active: 0.0247 µM,–,–,–
CCCc1nc(C)c2c(=O)[nH]c(-c3cc(S(=O)(=O)N4CCN(CC)CC4)ccc3OCC)nn12,"inconclusive: 26.2 µM [cytotoxic, single point]",–,–,–,–,–,–,–,–
CC[C@@]1(c2ccccc2)NC(=O)N(C)C1=O,inactive,inactive,inactive,–,–,inactive,–,–,–
CCN(CC)CCNc1ccc(CO)c2sc3ccccc3c(=O)c12,"inconclusive: 26.4 µM [cytotoxic, single point]","inconclusive: 33.5 µM [cytotoxic, single point]","inconclusive: 26.6 µM [cytotoxic, single point]","inconclusive: 21.1 µM [cytotoxic, single point]",active: 17.4 µM,–,"inconclusive: 33.5 µM [cytotoxic, single point]",–,–
C=C1[C@H](n2cnc3c(=O)[nH]c(N)nc32)C[C@H](O)[C@H]1CO,"inconclusive: 16.5 µM [cytotoxic, partial curve]","inconclusive: 11.8 µM [cytotoxic, partial curve]",–,–,–,–,–,–,–
O=C(O)c1ccc(Nc2ncc3c(n2)-c2ccc(Cl)cc2C(c2c(F)cccc2F)=NC3)cc1,"inconclusive: 2.34 µM [cytotoxic, full curve]","inconclusive: 0.0469 µM [cytotoxic, full curve, poor fit]","inconclusive: 0.0296 µM [cytotoxic, full curve]",active: 4.69 µM,"inconclusive: 13.7 µM [cytotoxic, partial curve]",–,–,–,–
CC(C)n1cnc2c(NCCc3ccc(O)cc3)nc(-c3csc4ccccc34)nc21,"inconclusive: 37 µM [cytotoxic, single point]",active: 11.8 µM,"inconclusive: 29.6 µM [cytotoxic, single point]",active: 1.18 µM,"inconclusive: 34.3 µM [cytotoxic, single point]",–,–,"inconclusive: 37.2 µM [cytotoxic, single point]",–
COc1cc(NS(C)(=O)=O)ccc1Nc1c2ccccc2nc2ccccc12,–,–,–,–,–,–,–,–,"inconclusive: 20.7 µM [inhibitor, partial curve]"
Cc1ccc(C(N)=O)cc1Nc1nccc(-c2cn(C(C)C)c3cnccc23)n1,"inconclusive: 33 µM [cytotoxic, single point]",active: 11.8 µM,–,–,–,–,–,–,–
CCCCCCCCCCCCCCCC[N+](C)(C)CCN(Cc1ccc(OC)cc1)c1ncccn1,"inconclusive: 21 µM [cytotoxic, single point]","inconclusive: 26.6 µM [cytotoxic, single point]","inconclusive: 23.7 µM [cytotoxic, single point]",active: 16.8 µM,–,–,"inconclusive: 26.6 µM [cytotoxic, single point]","inconclusive: 26.6 µM [cytotoxic, single point]",–
CC(=O)[C@]1(O)Cc2c(O)c3c(c(O)c2[C@@H](O[C@H]2C[C@H](N)[C@H](O)[C@H](C)O2)C1)C(=O)c1ccccc1C3=O,–,–,"inconclusive: 7.5 µM [cytotoxic, partial curve]",–,active: 0.174 µM,–,active: 6.68 µM,"inconclusive: 0.133 µM [cytotoxic, full curve, poor fit]",active: 16.5 µM
CN(C)CCCN1c2ccccc2Sc2ccc(Cl)cc21,"inconclusive: 29.7 µM [cytotoxic, single point]","inconclusive: 21.1 µM [cytotoxic, single point]","inconclusive: 29.9 µM [cytotoxic, single point]",–,"inconclusive: 30.9 µM [cytotoxic, single point]","inconclusive: 26.6 µM [cytotoxic, partial curve, poor fit]",–,"inconclusive: 33.5 µM [cytotoxic, single point]","inconclusive: 16.5 µM [inhibitor, single point]"
Cc1cc2c(C(C)C)c(O)c(O)c(C=O)c2c(O)c1-c1c(C)cc2c(C(C)C)c(O)c(O)c(C=O)c2c1O,"inconclusive: 29.7 µM [cytotoxic, single point]",active: 21.1 µM and active: 14.8 µM,–,"inconclusive: 26.6 µM [cytotoxic, single point]",active: 15.5 µM and active: 24.3 µM,–,–,–,"inconclusive: 14.7 µM [inhibitor, partial curve]"
NNCCc1ccccc1,–,"inconclusive: 29.6 µM [cytotoxic, single point]","inconclusive: 6.62 µM [cytotoxic, single point]",–,"inconclusive: 21.7 µM [cytotoxic, partial curve]",–,–,–,inactive
O=C(Nc1ncc([N+](=O)[O-])s1)c1cccs1,"inconclusive: 33.3 µM [cytotoxic, single point]",active: 16.8 µM,"inconclusive: 29.9 µM [cytotoxic, single point]","inconclusive: 21.1 µM [cytotoxic, partial curve]",–,"inconclusive: 33.5 µM [cytotoxic, single point]","inconclusive: 13.3 µM [cytotoxic, partial curve]","inconclusive: 29.9 µM [cytotoxic, single point]",–
CSc1ccc2c(c1)N(CCC1CCCCN1C)c1ccccc1S2 (configuration not stated),"inconclusive: 33.3 µM [cytotoxic, single point]",active: 16.8 µM,"inconclusive: 29.9 µM [cytotoxic, single point]",–,active: 24.6 µM,"inconclusive: 29.9 µM [cytotoxic, single point]","inconclusive: 1.33 µM [cytotoxic, partial curve, poor fit]",–,"inconclusive: 14.7 µM [inhibitor, partial curve]"
Nc1ncn([C@@H]2O[C@H](CO)[C@@H](O)[C@H]2O)c(=O)n1,active: 11.8 µM,"inconclusive: 16.8 µM [cytotoxic, partial curve]","inconclusive: 33.5 µM [cytotoxic, single point]",active: 6.68 µM,active: 12.3 µM,active: 21.1 µM,"inconclusive: 21.1 µM [cytotoxic, partial curve]","inconclusive: 33.5 µM [cytotoxic, single point]",–
COc1c(C)c2c(c(O)c1C/C=C(\C)CCC(=O)O)C(=O)OC2,active: 0.664 µM,"inconclusive: 0.422 µM [cytotoxic, full curve]","inconclusive: 33.5 µM [cytotoxic, single point]","inconclusive: 1.06 µM [cytotoxic, full curve]",active: 0.389 µM,–,–,–,–
CCCCCN=C(N)N/N=C/c1c[nH]c2ccc(OC)cc12,"inconclusive: 21 µM [cytotoxic, single point]","inconclusive: 33.5 µM [cytotoxic, single point]","inconclusive: 29.9 µM [cytotoxic, single point]",–,active: 24.6 µM,"inconclusive: 29.9 µM [cytotoxic, single point]","inconclusive: 26.6 µM [cytotoxic, single point]","inconclusive: 23.7 µM [cytotoxic, single point]",–
CCOC(=O)[C@H]1O[C@H]1C(=O)N[C@@H](CC(C)C)C(=O)NCCC(C)C,"inconclusive: 33 µM [cytotoxic, single point]",inactive,–,–,–,"inconclusive: 37.2 µM [cytotoxic, single point]",–,–,–
COc1cc2nc(-c3cc(F)ccc3O)nc(N[C@@H]3CNC[C@@H]3C(C)(C)O)c2cc1OC,"inconclusive: 23.4 µM [cytotoxic, single point]","inconclusive: 37.2 µM [cytotoxic, single point]",active: 23.5 µM,–,active: 27.3 µM,"inconclusive: 18.7 µM [cytotoxic, partial curve, poor fit]","inconclusive: 29.6 µM [cytotoxic, single point]","inconclusive: 37.2 µM [cytotoxic, single point]",–
CCc1cccc(CC)c1NC(=O)N1Cc2[nH]nc(NC(=O)c3ccc(N4CCN(C)CC4)cc3)c2C1,"inconclusive: 1.86 µM [cytotoxic, full curve]","inconclusive: 29.6 µM [cytotoxic, single point]","inconclusive: 0.833 µM [cytotoxic, full curve]",–,–,–,"inconclusive: 23.5 µM [cytotoxic, single point]",–,–
COc1ccc(S(=O)(=O)Nc2cccnc2Nc2ccc(O)cc2)cc1,active: 8.29 µM,"inconclusive: 1.18 µM [cytotoxic, full curve]",–,active: 0.235 µM,active: 0.344 µM,–,"inconclusive: 3.72 µM [cytotoxic, full curve]",–,–
